Data published in PubChem BioAssay AID1476 (National Center for Advancing Translational Sciences (NCATS), 2009).
About 4,500 (2.2%) of roughly 200,000 compounds were called active. Inconclusive means that the source gave no clear call. Such entries were picked first, then a sample of the others. Calls follow the shape of the dose curve; as a rule, active = well fitted inhibition curve with a large enough effect; inconclusive = small, poorly fitted or top-dose-only effect, or effect the other way; inactive = flat fitted curve, though single readings scatter. Potencies beside an inconclusive call are fits to weak or partial responses and may not hold up. Some compounds were tested as several samples or in several runs, with calls that do not always agree.
Also: nearly all actives have a fitted effect of over 40% in size.
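For max response, negative = inhibition in this document: plate controls were enzyme without inhibitor for no effect and buffer without enzyme for full effect.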
Potency is read from the fitted curve at half-maximal effect; tags tell the direction and shape of the fitted curve.

These compounds were tested against Cruzipain (Trypanosoma cruzi) (UniProt P25779) (assay: qHTS Assay for Promiscuous and Specific Inhibitors of Cruzain (without detergent)). Conditions: purified cruzain, Z-FR-AMC fluorescence, no detergent.
UniProt P25779, sequence (P25779 whole entry, looked up): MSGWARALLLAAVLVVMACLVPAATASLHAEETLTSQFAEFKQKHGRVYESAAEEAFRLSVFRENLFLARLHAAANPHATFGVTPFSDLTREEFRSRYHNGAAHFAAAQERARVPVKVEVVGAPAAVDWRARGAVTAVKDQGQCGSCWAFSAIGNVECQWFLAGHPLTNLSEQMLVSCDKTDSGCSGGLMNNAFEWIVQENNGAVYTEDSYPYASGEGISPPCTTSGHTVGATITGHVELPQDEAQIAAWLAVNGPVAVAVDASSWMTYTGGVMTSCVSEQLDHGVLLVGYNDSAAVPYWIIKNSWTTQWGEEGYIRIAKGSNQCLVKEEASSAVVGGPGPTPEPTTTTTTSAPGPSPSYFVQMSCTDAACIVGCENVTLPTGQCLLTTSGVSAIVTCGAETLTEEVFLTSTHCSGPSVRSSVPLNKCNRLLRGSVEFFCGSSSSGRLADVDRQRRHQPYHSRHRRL
Summary of the method: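 Detergent-free condition (0.00005% Triton X-100) in acetate buffer pH 5.5 with DTT. 1.5 nM enzyme and compound were pre-mixed 15 min, then 2 uM Z-FR-AMC substrate added; reaction progress from fluorescence change between first and third reads (60 s).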
With `COC1C(O)C(CO)OC1n1cnc2c(=O)[nH]c(N)nc21` (configuration not stated) the max response, negative = inhibition was inactive: -5.21%. For `Cc1cc(C)cc(N(C(=O)c2ccccn2)C(C(=O)NC2CCCCC2)c2cccs2)c1` (configuration not stated), the max response, negative = inhibition was inactive: 11.7%. With `Cc1cccc(CN2C(=O)c3ccccc3Sc3ccc(C(=O)NC4CCCCC4)cc32)c1` the Potency was active: 12.6 µM. In the case of `Cc1c(-c2ccccc2)nc2ccccc2c1C(=O)Oc1ccc([N+](=O)[O-])cc1`, the Potency is reported as inconclusive: 25.1 µM [inhibitor, single point]. `CC1=CC(=O)C2=C(C)CC[C@@H]3[C@@H](OC(=O)[C@H]3C)[C@H]12` was tested, and the max response, negative = inhibition was inactive: -9.27%. `CC12C(=O)N(c3cccc(OC(=O)c4ccco4)c3)C(=O)C1C1c3ccccc3C2c2ccccc21` (configuration not stated) was tested, and the Potency was inconclusive: 39.8 µM [inhibitor, single point]. With `COc1ccc(OC(=O)c2nc(SCc3ccccc3F)ncc2Cl)cc1` the Potency was inconclusive: 25.1 µM [inhibitor, partial curve]. `Cc1ccc(NC2=Nc3ccccc3N3C2=Nc2c(c(C)nn2-c2ccccc2)C3c2ccc(O)c(O)c2)cc1` (configuration not stated) was tested, and the Potency was inconclusive: 39.8 µM [inhibitor, single point]. `Cc1cccc(C)c1Nc1nnc(SCc2nc3ccccc3s2)s1` was tested, and the Potency was active: 31.6 µM. With `CCn1c(SCC(=O)Nc2cc(C)c(Cl)cc2OC)nnc1-c1ccco1` the Potency was inconclusive: 25.1 µM [activator, single point]. `O=C(NC(=S)Nc1ccc2oc(=O)ccc2c1)c1ccc(-c2cccc(Cl)c2Cl)o1` was tested, and the Potency was active: 5.01 µM. For `O=C(Nc1ccc(Cc2ccncc2)cc1)c1ccc(Cl)c([N+](=O)[O-])c1`, the Potency was inconclusive: 10 µM [inhibitor, partial curve]. In the case of `CC1CCN(S(=O)(=O)c2ccc(NC(=O)Cn3nnc(-c4ccccc4)n3)cc2)CC1`, the Potency is reported as inconclusive: 39.8 µM [inhibitor, single point]. In the case of `CCN(C(=O)C1CCN(S(=O)(=O)c2cc(Br)cc3c2N(C(C)=O)CC3)CC1)c1cccc(C)c1`, the Potency is reported as inconclusive: 10 µM [activator, partial curve, poor fit]. For `O=C1CC(N2CCN(c3cccc(C(F)(F)F)c3)CC2)C(=O)N1c1ccccc1F` (configuration not stated), the Potency was inconclusive: 39.8 µM [activator, single point]. For `C[N+]1(C)CCc2cc(O)c(O)cc2[C@H]1Cc1ccc(O)c(O)c1`, the max response, negative = inhibition was inactive: -6.42%. In the case of `CC1=NN(c2ccccc2)C(=O)/C1=C\c1ccc(Br)s1`, the Potency is reported as inconclusive: 31.6 µM [activator, single point]. `N[C@@H](Cc1cc(I)c(Oc2ccc(O)c(I)c2)c(I)c1)C(=O)O` was tested, and the Potency was active: 12.6 µM and the max response, negative = inhibition was inactive: -5.09%. For `Cc1ccccc1COC[C@H](CC(C)C)N1CCN(C(=O)c2cccc(C(F)(F)F)c2)CCC1=O`, the Potency was inconclusive: 25.1 µM [activator, partial curve]. With `CCn1cc(C(=O)Nc2cccc(Cl)c2)c2cc(OC)c(OC)cc2c1=O` the Potency was inconclusive: 25.1 µM [activator, partial curve]. `CC(=O)Nc1cccc(N/C=C(\C=O)c2nc3ccccc3o2)c1` was tested, and the Potency was inconclusive: 39.8 µM [activator, single point]. `CCOc1cc(-c2ccc(OC(=O)c3ccccc3Cl)c(OC)c2)cc(=O)c2c(C)oc(C)c12` was tested, and the Potency was inconclusive: 39.8 µM [activator, single point]. With `COC(=O)N1CCCc2cc(S(=O)(=O)NCc3ccccc3)ccc21` the max response, negative = inhibition was inactive: -5.58%. With `COc1ccc(C)cc1NC(=O)CSc1nnc(CC(=O)Nc2cccc(C(F)(F)F)c2)n1C` the Potency was inconclusive: 25.1 µM [activator, single point]. `CCN(CC)S(=O)(=O)c1ccc2c(c1)nc(CCC(=O)OCC(=O)Nc1cc(Cl)cc(Cl)c1)n2C` was tested, and the Potency was inconclusive: 25.1 µM [activator, single point]. `CCn1cc2nc(SCC(=O)Nc3cc(OC)cc(OC)c3)n(Cc3ccc(Cl)cc3)c(=O)c2n1` was tested, and the max response, negative = inhibition was inactive: 11.4%. With `Cc1ccc2oc(-c3ccc(NC(=O)CCC(=O)O)cc3)nc2c1` the max response, negative = inhibition was inactive: 8.35%. `O=C(Nc1cccc([N+](=O)[O-])c1)c1ccc(-c2ccccc2)cc1` was tested, and the Potency was inconclusive: 39.8 µM [inhibitor, single point]. For `CCCCCCCCCCCCCCCC[n+]1cccc(C(=O)N(CC)CC)c1`, the Potency was inconclusive: 39.8 µM [activator, single point]. In the case of `CCNC(=S)NNC(=O)c1csc(CC)c1`, the Potency is reported as inconclusive: 39.8 µM [activator, single point]. With `Cc1ccc(N=c2c([N+](=O)[O-])nn(-c3ccccc3)n2O)c(C)c1` the Potency was inconclusive: 39.8 µM [inhibitor, single point]. For `CCc1ccc2[nH]c(=O)c(C(c3nnnn3CCOC)N3CCN(c4ccccc4)CC3)cc2c1` (configuration not stated), the Potency was inconclusive: 31.6 µM [activator, single point]. For `COc1ccc(NC(=O)CC2C(=O)N(c3ccc(OC)cc3)C(=O)N2CCC2=CCCCC2)cc1` (configuration not stated), the max response, negative = inhibition was inactive: 4.52%. In the case of `Nc1c(C(=O)NCc2ccccc2)nnn1Cc1ccc(F)cc1`, the Potency is reported as inconclusive: 39.8 µM [inhibitor, single point]. For `Cc1ccc(CNC(=O)c2cc3c(=O)n(Cc4ccco4)ccc3nc2C)cc1`, the Potency was inconclusive: 31.6 µM [activator, single point]. In the case of `COCCCNC(=O)c1sc2ncnc(N3CCc4ccccc4C3)c2c1C`, the Potency is reported as inconclusive: 31.6 µM [activator, single point]. With `COc1cc(-c2noc(-c3ccc(NCC4CCCO4)c([N+](=O)[O-])c3)n2)cc(OC)c1OC` (configuration not stated) the Potency was inconclusive: 39.8 µM [inhibitor, single point]. `COc1ccc(CCNC(=O)Cc2c(C)c3cc4c(C(C)(C)C)coc4c(C)c3oc2=O)cc1` was tested, and the max response, negative = inhibition was inactive: 8.85%. `CCOC(=O)C1=C(O)CSC1=Nc1cccc(Cl)c1` was tested, and the max response, negative = inhibition was inactive: -9.26%. With `Cc1ccc(CNC(=O)CCCn2c(=O)c3ccccc3n(CC(=O)Nc3ccc(C)cc3)c2=O)cc1` the max response, negative = inhibition was inactive: -4.2%. `CCC(C(=O)Nc1ccc(C)c(C)c1)n1c(=O)c(C(F)(F)F)nc2ccccc21` (configuration not stated) was tested, and the max response, negative = inhibition was inactive: 1.05%.
